In PubChem BioAssay (Tox21):
Where “and” joins values, the source holds several entries; their conditions need not be identical. Identical values can stand only once. The shares of active, inactive and inconclusive entries below differ from those in the screen. Potencies of inconclusive entries are doubtful fits and often do not repeat. Calls of active or inactive are those of the source. Unless noted, calls follow the shape of the full dose curve.

Target: Progesterone receptor (Homo sapiens) (UniProt P06401)
Assay: qHTS assay to identify small molecule agonists of the progesterone receptor (PR) signaling pathway (AID 1346784); also: nearly all actives have a fitted effect of over 30% in size
Conditions: PR-UAS-bla HEK293T, beta-lactamase FRET ratio, 16 h; activation: at 92.4 µM (top of the series) unless noted
How it was run: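 PR-UAS-bla HEK 293T cells (beta-lactamase reporter under UAS) in 2% charcoal-stripped FBS, dosed with 23 nL compound after 6 hr, incubated 16hr at 37C. LiveBLAzer B/G FRET substrate added, fluorescence read after 2 hours.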
% is scaled to controls: 0 for no effect and ±100 for the full control effect; potency is read from the fitted curve at half-maximal effect; tags tell the direction and shape of the fitted curve or compound fluorescence and quenching.

UniProt P06401, sequence (P06401 whole entry, looked up): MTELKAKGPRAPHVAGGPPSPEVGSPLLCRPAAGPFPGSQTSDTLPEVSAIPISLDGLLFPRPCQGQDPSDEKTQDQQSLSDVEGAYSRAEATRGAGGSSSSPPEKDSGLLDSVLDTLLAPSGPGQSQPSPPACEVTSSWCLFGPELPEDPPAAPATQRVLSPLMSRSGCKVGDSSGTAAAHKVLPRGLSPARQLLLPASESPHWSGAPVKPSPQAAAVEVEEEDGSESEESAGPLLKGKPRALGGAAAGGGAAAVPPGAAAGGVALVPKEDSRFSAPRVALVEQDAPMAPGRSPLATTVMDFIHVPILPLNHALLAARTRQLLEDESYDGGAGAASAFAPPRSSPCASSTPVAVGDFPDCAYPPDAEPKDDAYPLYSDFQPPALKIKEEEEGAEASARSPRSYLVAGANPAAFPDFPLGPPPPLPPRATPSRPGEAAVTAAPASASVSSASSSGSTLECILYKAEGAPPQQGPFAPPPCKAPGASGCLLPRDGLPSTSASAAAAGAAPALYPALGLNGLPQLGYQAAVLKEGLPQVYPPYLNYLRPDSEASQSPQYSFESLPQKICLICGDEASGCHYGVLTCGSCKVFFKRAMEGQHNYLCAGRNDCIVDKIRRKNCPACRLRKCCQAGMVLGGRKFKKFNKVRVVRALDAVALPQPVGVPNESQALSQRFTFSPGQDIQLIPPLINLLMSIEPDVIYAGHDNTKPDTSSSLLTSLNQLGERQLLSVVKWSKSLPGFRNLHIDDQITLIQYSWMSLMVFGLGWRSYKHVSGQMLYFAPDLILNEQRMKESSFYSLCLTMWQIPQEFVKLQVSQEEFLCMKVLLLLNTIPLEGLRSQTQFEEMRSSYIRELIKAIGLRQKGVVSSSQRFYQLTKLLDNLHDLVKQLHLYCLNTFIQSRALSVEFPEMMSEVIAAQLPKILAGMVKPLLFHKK

| Compound | Potency | activation |
| --- | --- | --- |
| C[C@H](CCC(=O)O)[C@H]1CC[C@H]2[C@@H]3CC[C@@H]4C[C@H](O)CC[C@]4(C)[C@H]3C[C@H](O)[C@]12C | inconclusive: 77.2 µM [cytotoxic, single point] | – |
| C#C[C@]1(OC(C)=O)CC[C@H]2[C@@H]3CCC4=C/C(=N/O)CC[C@@H]4[C@H]3CC[C@@]21CC | inconclusive: 0.0024 µM [full curve] | – |
| Nc1ncn([C@@H]2O[C@H](CO)[C@@H](O)[C@H]2O)c(=O)n1 | inconclusive: 2.43 µM [activator, full curve] | inconclusive: 9.19% [at 42.5 µM] |
| CCN(CC)C(=O)c1cc(S(=O)(=O)Cc2ccccc2)c(N2CCC(c3ccccc3)CC2)cc1N(CC)CCN(C)C | inconclusive: 27 µM [cytotoxic, single point] | – |
| O=C(Cl)c1cc(C(=O)Cl)cc(C(=O)Cl)c1 | – | inconclusive: 12.3% |
| Nc1c2ccccc2nc2ccccc12 | active: 4.79 µM and inconclusive: 4.22 µM [activator, full curve] | – |
| c1cc(C(c2ccc(OCC3CO3)cc2)c2ccc(OCC3CO3)cc2)ccc1OCC1CO1 (configuration not stated) | inconclusive: 38.6 µM [rising, partial curve] | – |
| CC1(C)O[C@@H]2C[C@H]3[C@@H]4CCC5=CC(=O)CC[C@]5(C)[C@@]4(F)[C@@H](O)C[C@]3(C)[C@]2(C(=O)CCl)O1 | inconclusive: 47.3 µM [fluorescent, partial curve, poor fit] | – |
| CC(=O)OC(OC(C)=O)c1ccc([N+](=O)[O-])o1 | – | inconclusive: -23.9% |
| O=S(=O)(O)c1ccccc1/C=C/c1ccc(-c2ccc(/C=C/c3ccccc3S(=O)(=O)O)cc2)cc1 | – | inconclusive: 21.2% |
| CN(C)c1ccc2nc3ccc(=[N+](C)C)cc-3sc2c1 | – | inconclusive: 2.15% |
| CC(=O)[C@@]1(O)CC[C@H]2[C@@H]3C[C@H](C)C4=CC(=O)CC[C@]4(C)[C@H]3CC[C@@]21C | inconclusive: 0.75 µM [falling, full curve] | – |
| [Cl][Au]([Cl])[Cl] | inconclusive: 68.6 µM [cytotoxic, single point] | – |
| CC(O)C#CC(C)O (configuration not stated) | – | inconclusive: 23.8% |
| CCN(CCCc1ccccc1)CCCc1ccccc1 | inactive | – |
| COCC(=O)O[C@]1(CCN(C)CCCc2nc3ccccc3[nH]2)CCc2cc(F)ccc2[C@@H]1C(C)C | inconclusive: 33.5 µM [cytotoxic, single point] | – |
| Oc1c(Cl)cc(Cl)cc1Sc1cc(Cl)cc(Cl)c1O | – | inconclusive: -20.7% |
| O=[N+]([O-])c1ccc(O/N=C/c2cc(Br)c(O)c(Br)c2)c([N+](=O)[O-])c1 | inconclusive: 27.2 µM [falling, full curve, poor fit] | – |
| O=S(=O)(O)c1ccc2nc(-c3ccccc3)[nH]c2c1 | inconclusive: 26.6 µM [rising, partial curve] | – |

Target: Progesterone receptor (Homo sapiens) (UniProt P06401)
Assay: qHTS assay to identify small molecule antagonists of the progesterone receptor (PR) signaling pathway (AID 1346795; active = well fitted inhibition curve with a large enough effect in the signal ratio in the repeat runs, not every such curve was filed as active; inconclusive = weak or mixed curves; the % refers to the signal ratio)
Conditions: PR-UAS-bla HEK293T, beta-lactamase FRET ratio, 16 h; activity change, negative = inhibition: at 92.4 µM (top of the series) unless noted
How it was run: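 PR-UAS-bla HEK293T cells with beta-lactamase reporter under UAS control, in 2% charcoal-stripped FBS, treated with compounds plus 1 nM promegestone (R5020, final) for 16 hr at 37C. Read-out: FRET beta-lactamase substrate fluorescence after 2 hr at room temperature.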

| Compound | Potency | activity change, negative = inhibition |
| --- | --- | --- |
| COc1cc(C=O)ccc1O | inactive | – |
| O=C1C=CC(=O)N1 | inconclusive: 39.6 µM [falling, partial curve] | – |
| C=CC(=O)Nc1cc2c(Nc3ccc(F)c(Cl)c3)ncnc2cc1OCCCN1CCOCC1 | – | inconclusive: -54.2% [at 42.5 µM] |
| CN1CCN(C2Cc3ccccc3Sc3ccc(Cl)cc32)CC1 (configuration not stated) | active: 26.6 µM | – |
| C[Si](C)(C)O[Si](C)(C)C | – | inconclusive: 9.82% |
| O[C@@H](c1cc(C(F)(F)F)nc2c(C(F)(F)F)cccc12)[C@H]1CCCCN1 | active: 23.7 µM | – |
| C#C[C@]1(O)CC[C@H]2[C@@H]3CCc4cc(OC5CCCC5)ccc4[C@H]3CC[C@@]21C | inconclusive: 8.41 µM | – |
| CNC(=O)c1cnn(-c2nc(N)c3ncn([C@@H]4O[C@H](CO)[C@@H](O)[C@H]4O)c3n2)c1 | inactive | – |
| CCCCCCCCCCCCN1CCCCCC1=O | inconclusive: 30.6 µM [rising, partial curve, poor fit] | – |
| C[C@H](CCC(=O)O)[C@H]1CC[C@H]2[C@@H]3CC[C@@H]4C[C@H](O)CC[C@]4(C)[C@H]3C[C@H](O)[C@]12C | inconclusive: 61.3 µM [falling, partial curve] | – |
| Nc1ccc2cc(S(=O)(=O)O)ccc2c1 | inactive | – |
| CCCCN(CCCC)C(=O)N(CCCC)CCCC | inactive | – |
| C#C[C@]1(OC(C)=O)CC[C@H]2[C@@H]3CCC4=C/C(=N/O)CC[C@@H]4[C@H]3CC[C@@]21CC | active: 29.8 µM | – |
| CCN(CC)C(=O)c1cc(S(=O)(=O)Cc2ccccc2)c(N2CCC(c3ccccc3)CC2)cc1N(CC)CCN(C)C | inconclusive: 24.1 µM [falling, single point] | – |
| O=C(Cl)c1cc(C(=O)Cl)cc(C(=O)Cl)c1 | inconclusive: 30.6 µM | – |
| c1cc(C(c2ccc(OCC3CO3)cc2)c2ccc(OCC3CO3)cc2)ccc1OCC1CO1 (configuration not stated) | inconclusive: 61.1 µM [partial curve] | – |
| CC(=O)OC(OC(C)=O)c1ccc([N+](=O)[O-])o1 | inconclusive: 69.8 µM [falling, single point] | – |
| O=S(=O)(O)c1ccccc1/C=C/c1ccc(-c2ccc(/C=C/c3ccccc3S(=O)(=O)O)cc2)cc1 | – | inconclusive: 17.8% |
| CC(=O)[C@@]1(O)CC[C@H]2[C@@H]3C[C@H](C)C4=CC(=O)CC[C@]4(C)[C@H]3CC[C@@]21C | – | inconclusive: 9.9% [at 42.5 µM] |
| [Cl][Au]([Cl])[Cl] | inconclusive: 0.77 µM [rising, partial curve] | – |
| CCCCCCCCCCCC(=O)N(CC)CC | – | inconclusive: -22% |
| CCN(CCCc1ccccc1)CCCc1ccccc1 | inactive | – |
| COCC(=O)O[C@]1(CCN(C)CCCc2nc3ccccc3[nH]2)CCc2cc(F)ccc2[C@@H]1C(C)C | active: 26.6 µM | – |
| Oc1c(Cl)cc(Cl)cc1Sc1cc(Cl)cc(Cl)c1O | active: 21.7 µM and active: 49.3 µM and inconclusive: 15.4 µM | inconclusive: -32% [at 42.5 µM] |
| O=[N+]([O-])c1ccc(O/N=C/c2cc(Br)c(O)c(Br)c2)c([N+](=O)[O-])c1 | – | inconclusive: 3.22% |
| CC(=O)CC(C)C | inactive | – |
